Laboratory results from patent publication US20200354460A1 (WUXI BIOLOGICS IRELAND, published 2020).

T1: OX40.ECD (UniProt P43489 29-214)
T1 construct: extracellular domain
T1 sequence (looked up): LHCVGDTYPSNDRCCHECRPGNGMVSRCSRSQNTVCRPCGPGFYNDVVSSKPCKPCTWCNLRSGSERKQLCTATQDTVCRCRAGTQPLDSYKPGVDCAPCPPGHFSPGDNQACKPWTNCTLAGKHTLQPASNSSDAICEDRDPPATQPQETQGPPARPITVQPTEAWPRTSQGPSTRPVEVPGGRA

T2: mouse PD-1, full length, on cells (WBP305.293F.mPro1.B4) (mouse, UniProt Q02242 25-288)
T2 construct: whole, on cells; also called murine PD-1
T2 sequence (looked up): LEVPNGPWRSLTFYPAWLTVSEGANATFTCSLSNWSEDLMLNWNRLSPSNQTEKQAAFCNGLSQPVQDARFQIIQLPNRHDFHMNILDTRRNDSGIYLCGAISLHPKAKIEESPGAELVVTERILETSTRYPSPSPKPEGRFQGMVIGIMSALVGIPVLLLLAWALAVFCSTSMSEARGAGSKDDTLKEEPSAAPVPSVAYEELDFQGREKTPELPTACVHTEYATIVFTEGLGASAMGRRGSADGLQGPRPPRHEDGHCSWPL


Legend:
OX40.ECD [1] = biological target: T1, OX40.ECD; assay: ELISA, coated protein 2 µg/mL, antibody 10 µg/ml
4-1BB.ECD [2] = biological target: T3, 4-1BB.ECD (UniProt Q07011 24-186); assay: ELISA, coated protein 2 µg/mL, antibody 10 µg/ml
T3 construct: extracellular domain

XAg.ECD = biological target: T4, XAg.ECD; assay: ELISA, coated protein 2 µg/mL, antibody 10 µg/ml
T4 construct: Undisclosed protein

FGFR-ECD = assay: ELISA, coated protein 2 µg/mL, antibody 10 µg/ml
Ag1.E.his = biological target: T5, Ag1.E.his; assay: ELISA, coated protein 2 µg/mL, antibody 10 µg/ml
T5 construct: Undisclosed protein

human CTLA4 ECD.his = biological target: T6, human CTLA4 ECD.his (human, UniProt P16410 36-161); assay: ELISA, coated protein 2 µg/mL, antibody 10 µg/ml
T6 construct: extracellular domain; there neither species nor tag is stated; not shown: his tag

CD3e.ECD [3] = biological target: T7, CD3e.ECD (UniProt P07766 23-126, limits assumed); assay: ELISA, coated protein 2 µg/mL, antibody 10 µg/ml
T7 construct: extracellular domain

CD22.ECD [4] = biological target: T8, CD22.ECD (UniProt P20273 20-687, limits assumed); assay: ELISA, coated protein 2 µg/mL, antibody 10 µg/ml
T8 construct: extracellular domain

HER2-ECD = biological target: T9, HER2-ECD (UniProt P04626 fragment, limits assumed); assay: ELISA on coated HER2-ECD [panel HER2]
T9 construct: extracellular domain

[5] = biological target: T2, mouse PD-1, full length, on cells …; assay: FACS-based competition, blocking of murine PD-1/PDL1 interaction
[6] = biological target: T2, mouse PD-1, full length, on cells …; assay: FACS on mouse PD-1 expressing 293F cells
OX40.ECD [7] = biological target: T1, OX40.ECD; assay: non-specific binding ELISA, coated protein 2 µg/mL
4-1BB.ECD [8] = biological target: T3, 4-1BB.ECD; assay: non-specific binding ELISA, coated protein 2 µg/mL
CD3e.ECD [9] = biological target: T7, CD3e.ECD; assay: non-specific binding ELISA, coated protein 2 µg/mL
CD22.ECD [10] = biological target: T8, CD22.ECD; assay: non-specific binding ELISA, coated protein 2 µg/mL

| Binder | absorbance at 450 nm (OX40.ECD [1]) [A450] | absorbance at 450 nm (4-1BB.ECD [2]) [A450] | absorbance at 450 nm (XAg.ECD) [A450] | absorbance at 450 nm (FGFR-ECD) [A450] | absorbance at 450 nm (Ag1.E.his) [A450] | absorbance at 450 nm (human CTLA4 ECD.his) [A450] | absorbance at 450 nm (CD3e.ECD [3]) [A450] | absorbance at 450 nm (CD22.ECD [4]) [A450] | binding result (HER2-ECD) | IC50 [5] [nM] | EC50 [6] [nM] | binding result (OX40.ECD [7]) | binding result (4-1BB.ECD [8]) | binding result (CD3e.ECD [9]) | binding result (CD22.ECD [10]) |
| --- | --- | --- | --- | --- | --- | --- | --- | --- | --- | --- | --- | --- | --- | --- | --- |
| WBP336B = W336-T1U2.G10-4.uhIgG4.SP(dK) (bispecific antibody, EGFR x PD-1 bispecific; scFv-CH (IgG4 S228P) paired with scFv-CL (kappa); also called W336-T1U2.G10-4.uIgG4.SP(dk)) heavy: DVVMTQSPLSLPVTLGQPASISCRSSQSLLDSDGGTYLYWFQQRPGQSPRRLIYLVSTLGSGVPDRFSGSGSGTDFTLKISRVEAEDVGVYYCMQLTHWPYTFGQGTKLEIKGGGGSGGGGSGGGGSQVQLVQSGAEVKKPGSSVKVSCKASGFTFTTYYISWVRQAPGQGLEYLGYINMGSGGTNYNEKFKGRVTITADKSTSTAYMELSSLRSEDTAVYYCAILGYFDYWGQGTMVTVSSASTKGPSVFPLAPCSRSTSESTAALGCLVKDYFPEPVTVSWNSGALTSGVHTFPAVLQSSGLYSLSSVVTVPSSSLGTKTYTCNVDHKPSNTKVDKRV[human IgG4 Fc with S228P (EU numbers) not listed] light: not shown | 0.2 | 0.62 | 0.24 | 0.37 | 0.31 | 0.51 | 0.42 | 0.21 | no binding | 31.8 | 7.11 | no binding (tested: 10 µg/ml) | no binding (tested: 10 µg/ml) | no binding (tested: 10 µg/ml) | no binding (tested: 10 µg/ml) |
| WBP336C = W336-T1U3.G10-4.uhIgG4.SP(dK) (bispecific antibody, EGFR x PD-1 bispecific; scFv-CH (IgG4 S228P) paired with scFv-CL (kappa); also called W336-T1U3.G10-4.uIgG4.SP(dk)) heavy: DVVMTQSPLSLPVTLGQPASISCRSSQSLLDSDGGTYLYWFQQRPGQSPRRLIYLVSTLGSGVPDRFSGSGSGTDFTLKISRVEAEDVGVYYCMQLTHWPYTFGQGTKLEIKGGGGSGGGGSGGGGSQVQLVQSGAEVKKPGSSVKVSCKASGFTFTTYYISWVRQAPGQGLEYLGYINMGSGGTNYNEKFKGRVTITADKSTSTAYMELSSLRSEDTAVYYCAIIGYFDYWGQGTMVTVSSASTKGPSVFPLAPCSRSTSESTAALGCLVKDYFPEPVTVSWNSGALTSGVHTFPAVLQSSGLYSLSSVVTVPSSSLGTKTYTCNVDHKPSNTKVDKRV[human IgG4 Fc with S228P (EU numbers) not listed] light: not shown |  |  |  | 0.25 | 0.2 |  |  |  |  |  |  |  |  |  |  |
